In all, about 33,000 sequences were measured (“E-score (-0.5 to 0.5)”: median about -0.036, highest 2% from about 0.37 on). The list shows a part of the results.
biological target: T1, Yer064c (UniProt P40041); assay: PBM E-score (8-mer binding enrichment) (E-score (-0.5 to 0.5)); higher = stronger / more preferred TF binding; most listed sequences are background and not binding sites; conditions: protein concentration: 200 nM; construct: GST-full length
T1 sequence: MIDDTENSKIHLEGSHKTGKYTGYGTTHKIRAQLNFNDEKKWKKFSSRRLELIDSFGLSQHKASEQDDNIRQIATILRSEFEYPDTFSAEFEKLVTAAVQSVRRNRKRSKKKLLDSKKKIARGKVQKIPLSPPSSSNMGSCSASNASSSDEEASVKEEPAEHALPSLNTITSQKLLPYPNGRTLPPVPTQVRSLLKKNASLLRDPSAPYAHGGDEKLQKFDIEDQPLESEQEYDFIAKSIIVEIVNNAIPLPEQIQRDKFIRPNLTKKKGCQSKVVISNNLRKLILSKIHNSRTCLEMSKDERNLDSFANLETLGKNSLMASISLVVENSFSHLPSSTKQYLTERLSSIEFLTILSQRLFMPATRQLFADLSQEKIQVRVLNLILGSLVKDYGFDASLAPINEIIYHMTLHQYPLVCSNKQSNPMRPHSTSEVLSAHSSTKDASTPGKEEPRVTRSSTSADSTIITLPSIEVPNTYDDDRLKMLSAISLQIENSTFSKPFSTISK
How it was run: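 The E-score, a modified Wilcoxon-Mann-Whitney statistic, was computed by the Universal PBM Analysis Suite for every ungapped eight-base word pooled with its reverse complement. Scans behind it were normalised with masliner after bound GST-tagged yeast transcription factors were detected with fluorescent anti-GST. The proteins, at about 100-200 nM, had been applied to universal all-10-mer Agilent arrays made double-stranded by primer extension.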

Sequence | PBM E-score
AATAGTAG | -0.149
CGCAATTA | 0.0407
GTTTGATA | 0.173
GTCATACA | 0.374
AAAGTACG | 0.12
AACACTTA | -0.187
GCGAAAAC | -0.131
CATGGATA | 0.139
AATAACGT | -0.0458
ATAACAGG | -0.0906
CGTTAACA | -0.118
CGGGAGTC | 0.413
GAGCTAGC | -0.0727
AAGATGAG | 0.154
CTCGCTAC | -0.0508
GATAGTGA | 0.0967
CCAAGGGG | -0.202
AAACCATA | 0.132
GAGCCATA | 0.366
CCACGCGA | 0.054
AAGAGCAC | -0.114
CGTGTCGC | -0.0748
ACAATTAA | 0.144
CACCAACC | -0.0246
ACAGTCAG | 0.378

Sequence | PBM E-score
CAATCAGA | 0.208
AGAAGCGA | 0.0498
CACACTGG | -0.101
CATCATTC | 0.0981
TGTAGTAA | -0.0199
AATTGAAA | 0.0954
ATGTGAAG | -0.0882
GATAATCA | 0.384
CACTGAGG | -0.227
ATTCTGAC | 0.242
GCTCTAAC | -0.0641
CCAGAATC | 0.0913
CTCGGCTC | 0.145
CAGAAGTA | -0.00734
GCAGCCAA | -0.0571
CATGGGGC | -0.135
ATGAGTGA | 0.283
AGGTAAGC | -0.252
TCAACCCA | 0.0176
CCAGCCGG | -0.295
TCAGTGGA | 0.0611
ACAAACGA | 0.142
TCAAAAAA | 0.16
TGCACGAA | 0.144
AGTGATAG | -0.175

Sequence | PBM E-score
AAGTAACT | -0.0527
ACTGTTAT | 0.0549
ATCTGCAT | 0.105
GCCTCACA | 0.0503
CGAGTTGC | -0.095
ATCGACCG | -0.233
CGAAATCA | 0.309
CGAGAAGA | -0.12
AAGGCGAT | -0.0384
CTGGGCGA | -0.00955
ATCGCGAA | 0.018
GCCTTGAC | 0.121
AAGTAACA | -0.0958
AAAAAGGT | -0.0086
ACTACGAG | 0.219
CCTGCTCA | -0.254
CCGCTGAA | -0.165
AATCGCAT | 0.184
ATTGAAGC | -0.121
CCAACACA | 0.0809
TATTTGAA | 0.0204
AAGGTCTA | -0.0108
CTTAGACA | 0.00308
ACTCATAC | 0.393
CTAGTAGC | 0.0434

Sequence | PBM E-score
CCAGCGGC | -0.173
GCCCAGAA | -0.213
CCTTAGCG | 0.0566
CGGTGACG | -0.147
GCGCGCAC | -0.233
CTCATCTC | 0.145
ATAACTAT | -0.0464
TACTAATA | -0.1
GGCATGAC | 0.192
CGCCTCAA | -0.2
AATGCGTG | 0.0168
AATCCGGA | 0.0502
CACTTTTA | 0.154
CGTGTGTA | 0.137
GTTAGACA | 0.238
AACGCGAA | 0.0663
GTCGAGTA | 0.125
AGTGAGTA | 0.355
ACGCCGCC | -0.215
GGCTCTTA | -0.00753
AACCTCAA | -0.0197
CATATGCG | -0.0676
CGTATTTC | -0.122
GTCCGGTA | 0.0355
ATTTACCG | -0.181

Sequence | PBM E-score
ATGGGGTA | 0.0384
TCGGAAGA | -0.0232
ATGGATCC | -0.0679
GATTCGAC | 0.218
CGAGGACG | -0.0584
GGGTTGTA | -0.0784
GTACCAAA | -0.0721
TGCGCGAA | 0.0115
TCCATCGA | 0.00298
AAATCGCG | -0.00381
GGTAGAGA | -0.109
TCTACTAA | 0.072
CAATACCA | -0.0843
ACGGAGCA | -0.213
ACTTTACT | 0.159
CCTCCACC | -0.286
CAACTGGC | -0.183
ACGATCAA | 0.0214
GAGATCGA | 0.014
GCTGACCC | -0.0551
GCGGCGAA | -0.17
GGGCTTAA | -0.135
ATTGTAGA | 0.174
TAGTAGAA | -0.185
CTGGGGAC | -0.0825

Sequence | PBM E-score
GGGGTACC | -0.201
ATACAGTG | -0.0455
ACTTGGTA | 0.0514
AGTTATTC | 0.00866
AAGCCTTA | -0.0159
GTCGTGCA | 0.0025
AAAGACTG | 0.157
CCATACGC | -0.0241
AGTGGTTA | 0.0866
AGGGTAGG | 0.0272
GAACTGGC | -0.298
ACTACGCG | 0.175
AGAAGAGC | -0.288
CCGAATCG | -0.135
AGACCACA | 0.0805
AAACGTCG | -0.226
AATTATGT | 0.101
AGAGACGA | 0.0605
CCGTGAGC | -0.158
ACCGTTCC | -0.114
CACCAGTA | -0.0101
GCAGTGGC | -0.154
ATAGGGGC | -0.262
CAGTATGG | 0.0644
TCAACCGA | 0.153

Sequence | PBM E-score
CATTACAA | 0.0194
AAACTGGA | -0.113
AAACATAT | 0.142
CGATCGTC | 0.00604
CCACAGTC | 0.223
CAGCGTAA | -0.0143
AAGTGCCA | -0.278
CGAAAAAC | -0.027
GGATGCAA | -0.109
GTTGTGGA | 0.0795
CCCGTCCC | -0.12
CAAGGCTC | -0.248
CGAGCATA | -0.254
GTAACTGA | 0.0894
AGGTAGGA | -0.0376
GACCTAAA | 0.0605
GAAAGCAA | -0.0727
ACACGATA | -0.0453
TGGTCCAA | -0.244
CTAGGGAG | -0.165
CCGTAAGA | 0.0154
CTAGAACA | 0.0923
